The values below come from the supplement of paper PMC9446081.

The campaign covered roughly 39,000 compounds. About 220 (0.56%) showed activity. Some of the results follow.
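Further: static incubation at 37 °C against the wild-type strain, values averaged over two biological replicates.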

The test relates to Escherichia coli K-12 BW25113. In words: relative growth (OD600 normalised to plate interquartile mean) (fraction); higher = less growth inhibition, active = 0.2 or less. To be noted: 50 µM; LB; incubation time: overnight (16-24 h).
Regarding `CCCN(C)C[C@H]1OCCCC[C@@H](C)Oc2ccc(NC(=O)c3ccccc3)cc2C(=O)N([C@H](C)CO)C[C@H]1C`, the relative growth was inactive: 1.

As to `CCCN(C)C[C@@H]1OCCCC[C@@H](C)Oc2ccc(NS(C)(=O)=O)cc2C(=O)N([C@H](C)CO)C[C@H]1C`, the relative growth is inactive: 1.

As for `O=C(C[C@H]1CC[C@@H]2[C@H](COC[C@@H](O)CN2S(=O)(=O)c2ccccc2)O1)N[C@@H]1CCN(Cc2ccccc2)C1`, the relative growth was inactive: 1.01.

With `C[C@H](CO)N1C[C@H](C)[C@H](CN(C)C(=O)Nc2ccccc2)Oc2ccc(NC(=O)CCN3CCOCC3)cc2C1=O`, the relative growth is inactive: 0.973.

On to `C[C@H](CO)N1C[C@H](C)[C@H](CN(C)Cc2ccc(Cl)c(Cl)c2)OCCCC[C@H](C)Oc2ccc(NS(C)(=O)=O)cc2C1=O`, for which the relative growth is inactive: 1.01.

Consider `O=C(C[C@@H]1C[C@@H]2c3cc(NC(=O)C4CCOCC4)ccc3O[C@@H]2[C@@H](CO)O1)NCc1ccc(Cl)cc1`, for which the relative growth was inactive: 0.984.

Consider `C[C@@H]1CN([C@@H](C)CO)C(=O)Cc2cc(NS(=O)(=O)c3ccc(Cl)cc3)ccc2O[C@@H]1CN(C)S(=O)(=O)c1cn(C)cn1`, for which the relative growth is inactive: 0.98.

As to `C[C@H](CO)N1C[C@H](C)[C@@H](CN(C)C(=O)CCC(F)(F)F)OCCCC[C@H](C)Oc2ccc(NS(=O)(=O)c3ccc(F)cc3)cc2C1=O`, the relative growth was inactive: 0.986.

As to `CC1=Nc2ccccc2NC(C)(C)C1`, the relative growth is inactive: 1.

In the case of `C[C@H]1CN([C@@H](C)CO)C(=O)Cc2cc(NC(=O)Nc3ccc(C(F)(F)F)cc3)ccc2O[C@@H]1CN(C)Cc1ccc(-c2ccccc2)cc1`, the relative growth is inactive: 1.03.

With `COCCOC(=O)N1C(=O)[C@@]2(c3cc(C#CCC(C(=O)OC)C(=O)OC)ccc31)[C@H](C(=O)N1CCCCCCC1)[C@H]1C(=O)O[C@H](c3ccccc3)[C@H](c3ccccc3)N1[C@@H]2c1ccc(O)cc1`, the relative growth is inactive: 0.997.

As for `CCN1C(=O)[C@H]2[C@@H](O)CS[C@H]2C1=O`, the relative growth was inactive: 1.03.

As to `Cn1cc(CN2CCO[C@]3(COCCN(S(C)(=O)=O)C3)C2)cn1`, the relative growth was inactive: 0.996.

Consider `C[C@@H]1CN([C@H](C)CO)S(=O)(=O)c2ccc(C#CC3(O)CCCC3)cc2O[C@H]1CN(C)C(=O)Cc1ccncc1`, for which the relative growth was inactive: 1.01.

As to `C[C@H]1CN([C@@H](C)CO)S(=O)(=O)c2ccc(C#CC3CC3)cc2O[C@H]1CN(C)C(=O)c1cccc(F)c1`, the relative growth was inactive: 1.01.

As for `C[C@@H]1CCCCO[C@H](CN(C)C(=O)Nc2cccc3ccccc23)[C@@H](C)CN([C@@H](C)CO)C(=O)c2cc(NC(=O)c3ccccc3)ccc2O1`, the relative growth was inactive: 1.02.

Consider `C[C@@H]1CN([C@H](C)CO)C(=O)c2cc(NC(=O)C3CCCCC3)ccc2O[C@@H](C)CCCCO[C@H]1CN(C)C(=O)Nc1ccc(C(F)(F)F)cc1`, for which the relative growth was inactive: 1.03.

With `CC(=O)c1ccc2c(c1)N(CCCN1CCN(CCO)CC1)c1ccccc1S2.O=C(O)C=CC(=O)O`, the relative growth is inactive: 1.17.

As to `O=C(C[C@H]1CC[C@H]2[C@@H](COC[C@@H](O)CN2S(=O)(=O)c2ccccc2)O1)NCc1ccncn1`, the relative growth was inactive: 0.982.

Consider `C[C@@H]1CN([C@H](C)CO)C(=O)c2cc(NC(=O)c3ccccc3)ccc2O[C@@H](C)CCCCO[C@H]1CN(C)Cc1ccc(Cl)c(Cl)c1`, for which the relative growth was inactive: 0.984.

Consider `COc1ccc(S(=O)(=O)N(CC(=O)O)c2ccc(N(CC(=O)O)S(=O)(=O)c3ccc(OC)cc3)c3ccccc23)cc1`, for which the relative growth was inactive: 1.02.

Take `Cn1c(=O)c2c(nc(SCCNS(=O)(=O)c3ccccc3)n2C)n(C)c1=O`: the relative growth is inactive: 1.02.

Turning to `C[C@@H]1CN([C@@H](C)CO)C(=O)c2c(c3ccccc3n2C)-c2ccccc2CO[C@@H]1CN(C)C(=O)Nc1ccc(F)cc1`, the relative growth was inactive: 1.

For the compound `Cc1ccc(S(=O)(=O)N(C)C[C@@H]2Oc3ccc(NC(=O)c4ccncc4)cc3CC(=O)N([C@H](C)CO)C[C@H]2C)cc1`, the relative growth was inactive: 0.951.

In the case of `C[C@H]1CN([C@@H](C)CO)C(=O)Cc2cc(NS(=O)(=O)c3ccc(Cl)cc3)ccc2O[C@H]1CN(C)C`, the relative growth is inactive: 0.979.

`CC(C)C#Cc1ccc2c(c1)O[C@@H](CN(C)S(=O)(=O)c1cn(C)cn1)[C@H](C)CN([C@@H](C)CO)S2(=O)=O`: the relative growth is inactive: 0.991.

In the case of `COCC#Cc1ccc2c(c1)O[C@@H](CN(C)Cc1ccccc1F)[C@H](C)CN([C@@H](C)CO)S2(=O)=O`, the relative growth is inactive: 1.05.

Consider `COc1ccc2c3c(n(c2c1)C)[C@H](CO)N(C[C@]13CN(Cc2cccnc2)C1)S(=O)(=O)c1ccc(cc1)C`, for which the relative growth was inactive: 1.01.

For the compound `C[C@@H]1CCCCO[C@@H](CN(C)C(=O)c2ccccc2)[C@@H](C)CN([C@H](C)CO)C(=O)c2cc(NC(=O)Nc3ccc(F)cc3)ccc2O1`, the relative growth was inactive: 1.04.

Take `Oc1cccc2ccccc12`: the relative growth was inactive: 0.924.

Consider `COc1ccc(C#Cc2ccc3c(c2)[C@H]2[C@H](CCN2C(=O)Nc2ccc(C(F)(F)F)cc2)[C@@H](CO)N3C)cc1`, for which the relative growth is inactive: 1.09.

On to `Cc1ccc(-c2nc(-c3ccc(Cl)cc3)cs2)cc1F`, for which the relative growth was inactive: 0.955.

Turning to `CO[C@@H]1CN(C)C(=O)c2ccc(NC(=O)Nc3ccccc3)cc2OC[C@H](C)N(C(=O)CN(C)C)C[C@@H]1C`, the relative growth is inactive: 0.995.

`O=C(C[C@@H]1C=C[C@H](NC(=O)CN2CCOCC2)[C@@H](CO)O1)NC1CCCCC1`: the relative growth is inactive: 0.932.

Turning to `C[C@H](CO)N1C[C@H](C)[C@@H](CN(C)S(=O)(=O)c2ccc(F)cc2)Oc2c(NC(=O)Nc3ccc(C(F)(F)F)cc3)cccc2C1=O`, the relative growth was inactive: 0.767.

`C[C@@H]1CN([C@H](C)CO)C(=O)Cc2cc(NC(=O)C3CC3)ccc2O[C@H]1CN(C)S(=O)(=O)c1cn(C)cn1`: the relative growth is inactive: 0.948.

With `C[C@H](CO)N1C[C@H](C)[C@H](CN(C)S(=O)(=O)c2cccs2)Oc2ccc(NC(=O)c3ccncc3)cc2C1=O`, the relative growth is inactive: 0.99.

On to `C[C@@H]1CN([C@H](C)CO)C(=O)c2cccc(NC(=O)NC3CCCCC3)c2O[C@@H]1CN(C)Cc1ccc(C(F)(F)F)cc1`, for which the relative growth is inactive: 0.942.

Regarding `Cc1noc(C)c1NC(=O)N(C)C[C@@H]1OCCCC[C@@H](C)Oc2ccc(NC(=O)c3ccccc3)cc2C(=O)N([C@H](C)CO)C[C@H]1C`, the relative growth is inactive: 0.958.

With `CNC[C@H]1OCCCC[C@H](C)Oc2ccc(NC(=O)c3ccncc3)cc2C(=O)N([C@@H](C)CO)C[C@@H]1C`, the relative growth is inactive: 0.973.

On to `C[C@@H]1CN([C@@H](C)CO)C(=O)c2cccc(NC(=O)Nc3ccc(C(F)(F)F)cc3)c2O[C@H]1CN(C)Cc1ccccc1`, for which the relative growth was inactive: 0.824.

Regarding `C[C@H](CO)N1C[C@H](C)[C@@H](CN(C)C(=O)Nc2ccc(C(F)(F)F)cc2)Oc2ccc(NC(=O)Cc3ccccc3)cc2C1=O`, the relative growth was inactive: 0.977.

On to `C[C@H]1CN([C@@H](C)CO)C(=O)c2cccc(NC(=O)c3nc4ccccc4s3)c2O[C@@H]1CN(C)Cc1ccc(-c2ccccc2)cc1`, for which the relative growth is inactive: 1.04.

Turning to `CC(C)NC(=O)Nc1ccc2c(c1)C(=O)N([C@@H](C)CO)C[C@@H](C)[C@H](CN(C)Cc1ccc(Cl)c(Cl)c1)OCCCC[C@@H](C)O2`, the relative growth was inactive: 0.953.

`C[C@@H]1CN([C@@H](C)CO)C(=O)c2cc(NC(=O)Nc3cccc4ccccc34)ccc2O[C@H]1CN(C)Cc1ccc(-c2ccccc2)cc1`: the relative growth is inactive: 1.

For the compound `C[C@H](CO)N1C[C@H](C)[C@H](CN(C)C(=O)Nc2cccc(C(F)(F)F)c2)OCc2cnnn2CCCC1=O`, the relative growth is inactive: 0.983.

Take `CC1=C(C(=O)O)N2C(=O)[C@@H](NC(=O)[C@H](N)c3ccccc3)[C@H]2SC1`: the relative growth was inactive: 1.03.

On to `O=C(N/N=C/[C@H](O)[C@H](O)[C@@H](O)[C@@H](O)CO)c1ccccc1O`, for which the relative growth is inactive: 0.987.

`COc1ccc(NC(=O)Nc2ccc3c(c2)C(=O)N([C@H](C)CO)C[C@H](C)[C@H](CN(C)S(=O)(=O)c2ccccc2)OCCCC[C@@H](C)O3)cc1`: the relative growth was inactive: 1.03.

As for `C[C@H](CO)N1C[C@H](C)[C@H](CN(C)Cc2ccc(Cl)c(Cl)c2)Oc2ccc(NC(=O)NC3CCCCC3)cc2C1=O`, the relative growth is inactive: 0.998.

Take `O=C1CN(/N=C/c2ccc([N+](=O)[O-])o2)C(=O)N1`: the relative growth was active: 0.031.

In the case of `C[C@H](CO)N1C[C@H](C)[C@@H](CN(C)C(=O)Nc2ccc(C(F)(F)F)cc2)Oc2c(NC(=O)Nc3ccc4c(c3)OCO4)cccc2C1=O`, the relative growth is inactive: 1.02.

In the case of `C[C@@H]1CN([C@H](C)CO)S(=O)(=O)c2ccc(C#Cc3ccc(F)cc3)cc2O[C@@H]1CN(C)C(=O)c1ccccn1`, the relative growth was inactive: 1.03.

On to `Cc1noc(C)c1S(=O)(=O)N(C)C[C@H]1Oc2ccc(NS(=O)(=O)c3cn(C)cn3)cc2C(=O)N([C@@H](C)CO)C[C@H]1C`, for which the relative growth is inactive: 0.961.

On to `Cc1noc(C)c1NC(=O)Nc1ccc2c(c1)CC(=O)N([C@H](C)CO)C[C@H](C)[C@H](CN(C)S(C)(=O)=O)O2`, for which the relative growth is inactive: 0.97.

Turning to `COc1ccc(NC(=O)Nc2ccc3c(c2)C(=O)N([C@H](C)CO)C[C@H](C)[C@@H](CN(C)Cc2ccc4c(c2)OCO4)OCCCC[C@@H](C)O3)cc1`, the relative growth is inactive: 1.01.

As for `C[C@@H]1CN([C@@H](C)CO)C(=O)c2cc(NS(=O)(=O)c3ccc(Cl)cc3)ccc2O[C@H]1CN(C)S(C)(=O)=O`, the relative growth was inactive: 0.987.

On to `COc1ccc(S(=O)(=O)N2C[C@H](O)COC[C@@H]3O[C@H](CC(=O)NCCCN4CCOCC4)CC[C@H]32)cc1`, for which the relative growth was inactive: 0.973.

On to `C[C@H](CO)N1C[C@H](C)[C@H](CN(C)Cc2ccc(C(=O)O)cc2)Oc2ccc(NS(=O)(=O)c3cn(C)cn3)cc2CC1=O`, for which the relative growth was inactive: 1.01.
